Measured values reported in the supplement of paper PMC9446081.
Among all 39,000 compounds or so, about 220 (0.56%) showed activity. The list shows a part of the results.

Tested on: Escherichia coli K-12 BW25113
Experiment: relative growth (OD600 normalised to plate interquartile mean) (fraction); higher = less growth inhibition, active = 0.2 or less
Conditions: 50 µM; LB; incubation time: overnight (16-24 h)
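Note: static incubation at 37 °C against the wild-type strain, values averaged over two biological replicates.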

Row | SMILES | relative growth
1 | COC(=O)CCCCCCC(=O)N/N=C/[C@H](O)[C@@H](O)[C@H](O)CO | inactive: 1
2 | O=C(C[C@@H]1C=C[C@H](NC(=O)CN2CCOCC2)[C@H](CO)O1)NC1CCCCC1 | inactive: 1.02
3 | CN(C)CC#Cc1ccc([C@H]2[C@@H](CO)N3C(=O)CN(C(=O)CN(C)C)C[C@@H]23)cc1 | inactive: 1.01
4 | CCS(=O)(=O)NCC[C@H]1CC[C@H](NS(=O)(=O)c2ccccc2C)[C@H](CO)O1 | inactive: 1.01
5 | Cc1noc(C)c1S(=O)(=O)N(C)C[C@@H]1Oc2ccc(NS(=O)(=O)c3cccs3)cc2CC(=O)N([C@@H](C)CO)C[C@H]1C | inactive: 1.01
6 | C=CCCCCCCCCC(=O)[O-].C=CCCCCCCCCC(=O)[O-].[Zn+2] | inactive: 0.885
7 | OC[C@@H]1CCCN1 | inactive: 1.01
8 | C[C@@H]1CN([C@H](C)CO)C(=O)c2cc(NC(=O)CCC(F)(F)F)ccc2O[C@@H]1CN(C)Cc1ccc(Cl)c(Cl)c1 | inactive: 0.964
9 | C[C@@H]1CN([C@H](C)CO)C(=O)CCCn2cc(nn2)CO[C@@H]1CN(C)S(=O)(=O)c1ccc2c(c1)OCCCO2 | inactive: 0.971
10 | CN1C(=O)c2cc(NC(=O)c3cnccn3)ccc2OC[C@@H]2O[C@H](CC(=O)N[C@@H]3CCN(Cc4ccccc4)C3)CC[C@H]21 | inactive: 1.02
11 | C[C@@H]1CCCCO[C@H](CN(C)S(C)(=O)=O)[C@@H](C)CN([C@H](C)CO)C(=O)c2cc(NC(=O)CCCN(C)C)ccc2O1 | inactive: 0.98
12 | COC(=O)c1c(CC[C@@H](CO)NC(=O)N[C@@H](Cc2ccccc2)Cn2cc(-c3ccccn3)nn2)oc(C(=O)N2CCOCC2)c1C(=O)OC | inactive: 0.996
13 | C[C@H]1CN([C@@H](C)CO)C(=O)c2cc(C#CCN(C)C)cnc2O[C@H]1CN(C)S(=O)(=O)c1cn(C)cn1 | inactive: 0.984
14 | COc1ccc(S(=O)(=O)Nc2ccc3c(c2)C(=O)N([C@@H](C)CO)C[C@H](C)[C@@H](CN(C)C(=O)Nc2ccccc2)OCCCC[C@@H](C)O3)cc1 | inactive: 0.999
15 | C[C@@H]1CN([C@@H](C)CO)C(=O)c2cc(NS(=O)(=O)c3cn(C)cn3)ccc2O[C@@H]1CN(C)Cc1ccc2c(c1)OCO2 | inactive: 0.977
16 | Cc1ccc(N(CC2=NCCN2)c2cccc(O)c2)cc1.Cl | inactive: 1.03
17 | C[C@@H]1CN([C@@H](C)CO)C(=O)Cc2cc(NS(C)(=O)=O)ccc2O[C@H]1CN(C)S(=O)(=O)c1cn(C)cn1 | inactive: 1
18 | CCOC(=O)N1CCC(NS(=O)(=O)c2cccc(S(=O)(=O)[C@H]3CCS(=O)(=O)C3)c2)CC1 | inactive: 0.991
19 | C[C@H](CO)N1C[C@H](C)[C@@H](CN(C)C(=O)Nc2ccc(C(F)(F)F)cc2)Oc2ccc(NC(=O)Nc3cccc4ccccc34)cc2C1=O | inactive: 1.01
20 | O=C(C[C@@H]1CC[C@@H](NC(=O)c2ccc(F)cc2)[C@H](CO)O1)NCc1ccncn1 | inactive: 1.02

Row | SMILES | relative growth
21 | C[C@H](CO)N1C[C@H](C)[C@H](CN(C)S(C)(=O)=O)Oc2c(NS(C)(=O)=O)cccc2C1=O | inactive: 0.968
22 | C[C@H]1CCCCO[C@H](CN(C)Cc2ccccc2)[C@@H](C)CN([C@@H](C)CO)C(=O)c2cc(NS(=O)(=O)c3ccc(Cl)cc3)ccc2O1 | inactive: 0.993
23 | Cc1noc(C)c1NC(=O)N(C)C[C@H]1Oc2ccc(NC(=O)NC(C)C)cc2CC(=O)N([C@H](C)CO)C[C@@H]1C | inactive: 1
24 | C[C@H](CO)N1C[C@H](C)[C@H](CN(C)CC2CC2)Oc2ccc(NS(=O)(=O)c3cn(C)cn3)cc2CC1=O | inactive: 0.99
25 | COc1ccc(C#Cc2ccc3c(c2)O[C@@H](CN(C)C(=O)CN2CCOCC2)[C@H](C)CN([C@@H](C)CO)S3(=O)=O)cc1 | inactive: 1.01
26 | COc1nn(C)cc1C(=O)Nc1ccon1 | inactive: 0.987
27 | C[C@@H]1CN([C@@H](C)CO)C(=O)Cc2cc(NS(=O)(=O)c3cn(C)cn3)ccc2O[C@H]1CN(C)Cc1ccc(C(=O)O)cc1 | inactive: 0.997
28 | C[C@@H]1CN([C@@H](C)CO)C(=O)c2cc(NC(=O)Cn3cnnn3)ccc2O[C@@H]1CN(C)C(=O)Nc1ccc(F)cc1 | inactive: 1.02
29 | C[C@@H]1CCCCO[C@@H](CN(C)Cc2ccncc2)[C@@H](C)CN([C@H](C)CO)C(=O)c2cc(NC(=O)Nc3ccc4c(c3)OCO4)ccc2O1 | inactive: 1
30 | COc1ccc(CN(C)C[C@H]2OCCCC[C@H](C)Oc3ccc(NS(=O)(=O)c4ccc(F)cc4)cc3C(=O)N([C@H](C)CO)C[C@H]2C)cc1 | inactive: 0.978
31 | NNC(=O)c1cccc([N+](=O)[O-])c1 | inactive: 0.991
32 | C[C@H]1CCCCO[C@@H](CN(C)Cc2ccccc2)[C@@H](C)CN([C@@H](C)CO)C(=O)c2cc(NS(=O)(=O)c3ccc(F)cc3)ccc2O1 | inactive: 0.997
33 | C[C@H]1CN([C@@H](C)CO)C(=O)c2cccc(NC(=O)c3nc4ccccc4s3)c2O[C@H]1CN(C)Cc1ccc(Oc2ccccc2)cc1 | inactive: 1.01
34 | CO[C@@H]1CN(C)C(=O)c2cc(NC(=O)Nc3ccc(Cl)cc3)ccc2OC[C@H](C)N(C(=O)Nc2c(C)noc2C)C[C@H]1C | inactive: 0.968
35 | C[C@@H]1CN([C@@H](C)CO)C(=O)c2cc(NS(=O)(=O)c3ccccc3)ccc2O[C@H]1CN(C)CC1CC1 | inactive: 1
36 | COc1ccc(NC(=O)N(C)C[C@@H]2OCCCC[C@H](C)Oc3ccc(NC(=O)Nc4ccc(F)cc4)cc3C(=O)N([C@H](C)CO)C[C@@H]2C)cc1 | inactive: 1.02
37 | Cc1ccc(S(=O)(=O)N(C)C[C@@H]2OCCCC[C@@H](C)Oc3ccc(NC(=O)Nc4c(C)noc4C)cc3C(=O)N([C@@H](C)CO)C[C@@H]2C)cc1 | inactive: 0.989
38 | O=C1OC(CO)C(O)C(O)C1O (centres undefined) | inactive: 1.07
39 | Cc1ccc(S(=O)(=O)Nc2ccc3c(c2)C(=O)N([C@@H](C)CO)C[C@@H](C)[C@H](CN(C)C(=O)Nc2ccc(F)cc2)OCCCC[C@@H](C)O3)cc1 | inactive: 1.01
